According to the supplement of paper PMC3334620:
Over roughly 33,000 sequences, “E-score (-0.5 to 0.5)” has its median near -0.043; the highest 2% begin near 0.37. The list shows a part of the results.

These sequences were tested against T1, Upc2 (UniProt Q12151) (assay: PBM E-score (8-mer binding enrichment) (E-score (-0.5 to 0.5)); higher = stronger / more preferred TF binding; most listed sequences are background and not binding sites). Details: protein concentration: 200 nM; construct: GST-full length.
T1 sequence: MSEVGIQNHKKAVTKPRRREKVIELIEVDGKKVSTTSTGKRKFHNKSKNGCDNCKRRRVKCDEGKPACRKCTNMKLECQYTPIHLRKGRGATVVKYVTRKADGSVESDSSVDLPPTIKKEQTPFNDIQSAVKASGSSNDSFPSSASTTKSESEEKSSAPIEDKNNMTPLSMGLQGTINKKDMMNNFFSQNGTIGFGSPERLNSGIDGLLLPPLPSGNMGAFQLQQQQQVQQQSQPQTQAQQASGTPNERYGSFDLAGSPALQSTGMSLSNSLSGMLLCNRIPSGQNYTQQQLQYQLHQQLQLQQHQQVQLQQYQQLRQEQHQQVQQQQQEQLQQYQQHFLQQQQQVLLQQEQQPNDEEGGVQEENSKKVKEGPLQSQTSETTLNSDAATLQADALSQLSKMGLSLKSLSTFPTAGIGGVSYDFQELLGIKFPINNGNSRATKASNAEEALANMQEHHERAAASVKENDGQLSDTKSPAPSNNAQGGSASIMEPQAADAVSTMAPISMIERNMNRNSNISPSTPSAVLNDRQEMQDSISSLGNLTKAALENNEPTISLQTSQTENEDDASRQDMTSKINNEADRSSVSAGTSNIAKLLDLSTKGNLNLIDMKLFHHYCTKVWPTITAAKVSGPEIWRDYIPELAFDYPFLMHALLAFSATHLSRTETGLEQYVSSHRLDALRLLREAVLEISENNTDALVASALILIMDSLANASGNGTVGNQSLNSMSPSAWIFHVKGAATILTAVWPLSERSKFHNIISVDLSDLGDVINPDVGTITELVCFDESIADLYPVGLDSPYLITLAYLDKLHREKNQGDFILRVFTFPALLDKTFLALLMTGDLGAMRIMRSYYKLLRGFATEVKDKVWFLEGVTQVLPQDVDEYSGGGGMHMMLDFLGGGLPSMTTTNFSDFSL
Protocol: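 Universal 'all 10-mer' protein binding microarrays (Agilent AMADID 015681) probed with GST-tagged S. cerevisiae TFs (full-length or DBD) made by in vitro transcription/translation (PURExpress), about 100-200 nM. Bound TF was detected with fluorescent anti-GST. Each ungapped 8-mer (which stands for itself and its reverse complement) is scored by the PBM enrichment score (E-score), a modified Wilcoxon-Mann-Whitney statistic from -0.5 to +0.5, computed with the Universal PBM Analysis Suite. Scale: above 0.35 generally sequence-specific binding.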
For TCTTACCA, the “PBM E-score” value was -0.0239.
In the case of CAAGTAGA, the “PBM E-score” value was -0.199.
For AGGGACGA, the “PBM E-score” value was -0.0992.
In the case of CCGGCAAC, the “PBM E-score” value was -0.0689.
For CTAGGAAA, the “PBM E-score” value was -0.208.
For CGTCACCC, the “PBM E-score” value was -0.0645.
In the case of CATAGCGA, the “PBM E-score” value was -0.1.
For GTCCCTGA, the “PBM E-score” value was -0.187.
In the case of AGGTGGGG, the “PBM E-score” value was -0.152.
CACAGTTC was tested, and the “PBM E-score” value was -0.00124.
CACTTTCG was tested, and the “PBM E-score” value was 0.0897.
With AAAATGGC the “PBM E-score” value was -0.0658.
With GAGATGGC the “PBM E-score” value was -0.179.
For GTCCAGAA, the “PBM E-score” value was -0.16.
CTCAACTA was tested, and the “PBM E-score” value was -0.111.
For AGGGTCAG, the “PBM E-score” value was -0.182.
AGACAGAC was tested, and the “PBM E-score” value was 0.0288.
In the case of ATATAGAA, the “PBM E-score” value was 0.0234.
In the case of GTAGACTA, the “PBM E-score” value was 0.0718.
In the case of GAACGAAC, the “PBM E-score” value was 0.441.
AAAGTCCA was tested, and the “PBM E-score” value was -0.267.
With AGCCTGGA the “PBM E-score” value was -0.343.
For AATCCCTA, the “PBM E-score” value was 0.128.
With AGGGCTAG the “PBM E-score” value was -0.183.
In the case of ACTATCCT, the “PBM E-score” value was -0.149.
ACCCCGAC was tested, and the “PBM E-score” value was -0.0754.
With CGGGCTAA the “PBM E-score” value was -0.177.
For TAATAGAA, the “PBM E-score” value was -0.0162.
For AGTCGAGG, the “PBM E-score” value was -0.177.
In the case of ACTTACCA, the “PBM E-score” value was -0.0049.
CCTTGGGA was tested, and the “PBM E-score” value was -0.313.
AACCATTC was tested, and the “PBM E-score” value was -0.193.
CAATGCCA was tested, and the “PBM E-score” value was -0.193.
For CGTTCTTA, the “PBM E-score” value was 0.226.
With ACATCGCC the “PBM E-score” value was -0.0963.
In the case of CGCCATAC, the “PBM E-score” value was 0.192.
For AGTTTTAT, the “PBM E-score” value was -0.0125.
CCGAAGTA was tested, and the “PBM E-score” value was -0.0211.
For TAGAAGAA, the “PBM E-score” value was -0.0237.
For AATCAACT, the “PBM E-score” value was 0.0341.
For CAAATAAC, the “PBM E-score” value was 0.107.
TGACTGCA was tested, and the “PBM E-score” value was -0.125.
With CTGGAGAC the “PBM E-score” value was -0.192.
In the case of AAAGGACG, the “PBM E-score” value was 0.0636.
For AAAAATTG, the “PBM E-score” value was -0.0658.
TGGCATAA was tested, and the “PBM E-score” value was 0.0729.
CGACATAG was tested, and the “PBM E-score” value was 0.00392.
CGTACGCA was tested, and the “PBM E-score” value was 0.345.
For TCCTGCAA, the “PBM E-score” value was -0.187.
With GGGGCGAC the “PBM E-score” value was -0.231.
For CAAGACCG, the “PBM E-score” value was -0.00149.
ACTGCCTC was tested, and the “PBM E-score” value was -0.118.
CATGAGAC was tested, and the “PBM E-score” value was -0.0663.
In the case of CTCTGAAG, the “PBM E-score” value was -0.148.
In the case of ATCATCCA, the “PBM E-score” value was -0.118.
TGGCCTAA was tested, and the “PBM E-score” value was -0.106.
With AACCGTCT the “PBM E-score” value was -0.118.
TGCATCAA was tested, and the “PBM E-score” value was 0.0205.
In the case of ATATAAAG, the “PBM E-score” value was -0.138.
For GGCGCATA, the “PBM E-score” value was -0.0159.
CCCACTAG was tested, and the “PBM E-score” value was -0.252.
GTGAGCTA was tested, and the “PBM E-score” value was -0.206.
CACATCGC was tested, and the “PBM E-score” value was -0.112.
For AAAACGTC, the “PBM E-score” value was 0.0906.
In the case of AAAGCCAC, the “PBM E-score” value was -0.0581.
With AGGCCCGC the “PBM E-score” value was -0.0638.
For GTCAAAAC, the “PBM E-score” value was -0.0715.
With GATAGTAA the “PBM E-score” value was -0.00953.
TATGTACA was tested, and the “PBM E-score” value was -0.0556.
AGTAATAG was tested, and the “PBM E-score” value was 0.0647.
CGATGGCC was tested, and the “PBM E-score” value was 0.0435.
In the case of CTCGACTA, the “PBM E-score” value was -0.223.
For AGGGGCCA, the “PBM E-score” value was -0.215.
In the case of CGTAAGCC, the “PBM E-score” value was 0.208.
GTAGGTGA was tested, and the “PBM E-score” value was -0.0476.
For TCAGATGA, the “PBM E-score” value was -0.197.
In the case of ATCTGTAG, the “PBM E-score” value was -0.143.
For TACACGGA, the “PBM E-score” value was 0.0585.
GCCACAGC was tested, and the “PBM E-score” value was -0.348.
For AACTCAAA, the “PBM E-score” value was 0.063.
In the case of AAGCGACG, the “PBM E-score” value was 0.276.
With CAGGGCAC the “PBM E-score” value was 0.112.
GCAGTACC was tested, and the “PBM E-score” value was -0.124.
For GGTTTCGA, the “PBM E-score” value was -0.121.
In the case of ATGGGGAG, the “PBM E-score” value was -0.16.
For TATCTAAA, the “PBM E-score” value was 0.173.
